Measurements from the supplement of paper PMC8728848.
The list shows a part of the results.

Tests used:
Test in all cases: glycan array binding signal (z-score within array); higher = stronger binding
Settings in all cases: glycan notation: IUPAC condensed, linker removed
GlcNAc(b1-4)GlcNAc = target: GlcNAc(b1-4)GlcNAc
Summary of the method: (§1)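 The binding signal is a Z-score computed within each array. Data were drawn from 3228 arrays in the Consortium for Functional Glycomics database, restricted to those with a known protein sequence. Scores were averaged over arrays of the same protein sequence at different concentrations or buffers, and over linkers, and negative values can be taken as non-binding.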

[1] = target: GlcNAc(b1-4)GlcNAc(b1-4)GlcNAc
Summary of the method: as §1

[2] = target: GlcNAc(b1-4)GlcNAc(b1-4)GlcNAc(b1-4)GlcNAc(b1-4)GlcNAc
Summary of the method: as §1

[3] = target: GlcNAc(b1-4)GlcNAc(b1-4)GlcNAc(b1-4)GlcNAc(b1-4)GlcNAc(b1-4)GlcNAc
Summary of the method: as §1

[4] = target: GlcNAc(b1-4)[GlcNAc(b1-6)]GalNAc
Summary of the method: as §1

[5] = target: GlcNAc(b1-6)Gal(b1-4)GlcNAc
Summary of the method: as §1

GlcNAc(b1-6)GalNAc = target: GlcNAc(b1-6)GalNAc
Summary of the method: as §1

GlcNAc3Prop(b1-4)GlcNAc = target: GlcNAc3Prop(b1-4)GlcNAc
Summary of the method: as §1

[6] = target: GlcNAc6S(b1-3)Gal(b1-4)GlcNAc
Summary of the method: as §1

Kdn(a2-3)Gal(b1-3)GalNAc = target: Kdn(a2-3)Gal(b1-3)GalNAc
Summary of the method: as §1

Kdn(a2-3)Gal(b1-3)GlcNAc = target: Kdn(a2-3)Gal(b1-3)GlcNAc
Summary of the method: as §1

Kdn(a2-3)Gal(b1-4)Glc = target: Kdn(a2-3)Gal(b1-4)Glc
Summary of the method: as §1

Kdn(a2-3)Gal(b1-4)GlcNAc = target: Kdn(a2-3)Gal(b1-4)GlcNAc
Summary of the method: as §1

[7] = target: Kdn(a2-3)Gal(b1-4)[Fuc(a1-3)]GlcNAc
Summary of the method: as §1

Kdn(a2-6)Gal(b1-4)GlcNAc = target: Kdn(a2-6)Gal(b1-4)GlcNAc
Summary of the method: as §1

[8] = target: Man(a1-2)Man(a1-2)Man(a1-3)Man
Summary of the method: as §1

[9] = target: Man(a1-2)Man(a1-2)Man(a1-6)[Man(a1-3)]Man
Summary of the method: as §1

Man(a1-2)Man(a1-3)Man = target: Man(a1-2)Man(a1-3)Man
Summary of the method: as §1

[10] = target: Man(a1-2)Man(a1-3)[Man(a1-2)Man(a1-6)]Man
Summary of the method: as §1

[11] = target: Man(a1-2)Man(a1-3)[Man(a1-2)Man(a1-6)]Man(a1-6)[Man(a1-2)Man(a1-2)Man(a1-3)]Man
Summary of the method: as §1

[12] = target: Man(a1-2)Man(a1-3)[Man(a1-2)Man(a1-6)]Man(a1-6)[Man(a1-2)Man(a1-2)Man(a1-3)]Man(b1-4)GlcNAc(b1-4)GlcNAc
Summary of the method: as §1

[13] = target: Man(a1-2)Man(a1-3)[Man(a1-6)]Man(a1-6)[Man(a1-2)Man(a1-3)]Man(b1-4)GlcNAc(b1-4)GlcNAc
Summary of the method: as §1

[14] = target: Man(a1-2)Man(a1-6)[Man(a1-3)]Man(a1-6)[Man(a1-2)Man(a1-2)Man(a1-3)]Man
Summary of the method: as §1

[15] = target: Man(a1-2)Man(a1-6)[Man(a1-3)]Man(a1-6)[Man(a1-2)Man(a1-2)Man(a1-3)]Man(b1-4)GlcNAc(b1-4)GlcNAc
Summary of the method: as §1

Man(a1-3)[Man(a1-6)]Man = target: Man(a1-3)[Man(a1-6)]Man
Summary of the method: as §1

[16] = target: Man(a1-3)[Man(a1-6)]Man(a1-6)[Man(a1-2)Man(a1-3)]Man(b1-4)GlcNAc(b1-4)GlcNAc
Summary of the method: as §1

[17] = target: Man(a1-3)[Man(a1-6)]Man(a1-6)[Man(a1-3)]Man
Summary of the method: as §1

[18] = target: Man(a1-3)[Man(a1-6)]Man(a1-6)[Man(a1-3)]Man(b1-4)GlcNAc(b1-4)GlcNAc
Summary of the method: as §1

[19] = target: Man(a1-3)[Man(a1-6)]Man(b1-4)GlcNAc(b1-4)GlcNAc
Summary of the method: as §1

Man(a1-6)Man = target: Man(a1-6)Man
Summary of the method: as §1

Man(b1-4)GlcNAc = target: Man(b1-4)GlcNAc
Summary of the method: as §1

Neu5Ac(a2-3)Gal = target: Neu5Ac(a2-3)Gal
Summary of the method: as §1

[20] = target: Neu5Ac(a2-3)Gal(b1-3)GalNAc
Summary of the method: as §1

[21] = target: Neu5Ac(a2-3)Gal(b1-3)GalNAc(b1-3)Gal(a1-4)Gal(b1-4)Glc
Summary of the method: as §1

[22] = target: Neu5Ac(a2-3)Gal(b1-3)GalNAc(b1-4)[Neu5Ac(a2-3)]Gal(b1-4)Glc
Summary of the method: as §1

[23] = target: Neu5Ac(a2-3)Gal(b1-3)GalNAc(b1-4)[Neu5Ac(a2-8)Neu5Ac(a2-3)]Gal(b1-4)Glc
Summary of the method: as §1

[24] = target: Neu5Ac(a2-3)Gal(b1-3)GalNAc6S
Summary of the method: as §1

[25] = target: Neu5Ac(a2-3)Gal(b1-3)GlcNAc
Summary of the method: as §1

[26] = target: Neu5Ac(a2-3)Gal(b1-3)GlcNAc(b1-2)Man(a1-3)[Neu5Ac(a2-3)Gal(b1-3)GlcNAc(b1-2)Man(a1-6)]Man(b1-4)GlcNAc(b1-4)GlcNAc
Summary of the method: as §1

[27] = target: Neu5Ac(a2-3)Gal(b1-3)GlcNAc(b1-3)Gal(b1-3)GlcNAc
Summary of the method: as §1

[28] = target: Neu5Ac(a2-3)Gal(b1-3)GlcNAc(b1-3)Gal(b1-4)GlcNAc
Summary of the method: as §1

B1: Eosinophil cationic protein (ECP) (Homo sapiens), P12724 (protein)
chain: MVPKLFTSQICLLLLLGLMGVEGSLHARPPQFTRAQWFAIQHISLNPPRCTIAMRAINNYRWRCKNQNTFLRTTFANVVNVCGNQSIRCPHNRTLNNCHRSRFRVPLLHCDLINPGAQNISNCTYADRPGRRFYVVACDNRDPRDSPRYPVVPVHLDTTI
Question: How did the “glycan array binding signal (z-score)” value (GlcNAc(b1-4)GlcNAc) turn out when B1 was run?
Answer: -0.153

Question: What about the “glycan array binding signal (z-score)” value [1] of the same binder?
Answer: -0.422

Question: What about the “glycan array binding signal (z-score)” value [2] of the same binder?
Answer: -0.116

Question: And the “glycan array binding signal (z-score)” value [3]?
Answer: -0.013

Question: And the “glycan array binding signal (z-score)” value [4]?
Answer: -0.215

Question: And the “glycan array binding signal (z-score)” value [5]?
Answer: 0.126

Question: And the “glycan array binding signal (z-score)” value (GlcNAc(b1-6)GalNAc)?
Answer: -0.344

Question: And the “glycan array binding signal (z-score)” value (GlcNAc3Prop(b1-4)GlcNAc)?
Answer: -0.299

Question: What about the “glycan array binding signal (z-score)” value [6] of the same binder?
Answer: -0.39

Question: What about the “glycan array binding signal (z-score)” value (Kdn(a2-3)Gal(b1-3)GalNAc) of the same binder?
Answer: 0.204

Question: And the “glycan array binding signal (z-score)” value (Kdn(a2-3)Gal(b1-3)GlcNAc)?
Answer: -0.093

Question: And the “glycan array binding signal (z-score)” value (Kdn(a2-3)Gal(b1-4)Glc)?
Answer: 0.085

Question: And the “glycan array binding signal (z-score)” value (Kdn(a2-3)Gal(b1-4)GlcNAc)?
Answer: 0.092

Question: And the “glycan array binding signal (z-score)” value [7]?
Answer: 0.062

Question: And the “glycan array binding signal (z-score)” value (Kdn(a2-6)Gal(b1-4)GlcNAc)?
Answer: -0.319

Question: And the “glycan array binding signal (z-score)” value [8]?
Answer: -0.361

Question: What about the “glycan array binding signal (z-score)” value [9] of the same binder?
Answer: -0.321

Question: And the “glycan array binding signal (z-score)” value (Man(a1-2)Man(a1-3)Man)?
Answer: -0.065

Question: And the “glycan array binding signal (z-score)” value [10]?
Answer: -0.495

Question: What about the “glycan array binding signal (z-score)” value [11] of the same binder?
Answer: -0.174

Question: What about the “glycan array binding signal (z-score)” value [12] of the same binder?
Answer: -0.101

Question: What about the “glycan array binding signal (z-score)” value [13] of the same binder?
Answer: 0.001

Question: And the “glycan array binding signal (z-score)” value [14]?
Answer: -0.536

Question: And the “glycan array binding signal (z-score)” value [15]?
Answer: 0.498

Question: And the “glycan array binding signal (z-score)” value (Man(a1-3)[Man(a1-6)]Man)?
Answer: 0.316

Question: And the “glycan array binding signal (z-score)” value [16]?
Answer: 0.25

Question: What about the “glycan array binding signal (z-score)” value [17] of the same binder?
Answer: -0.195

Question: What about the “glycan array binding signal (z-score)” value [18] of the same binder?
Answer: -0.247

Question: What about the “glycan array binding signal (z-score)” value [19] of the same binder?
Answer: -0.299

Question: And the “glycan array binding signal (z-score)” value (Man(a1-6)Man)?
Answer: 0.134

Question: What about the “glycan array binding signal (z-score)” value (Man(b1-4)GlcNAc) of the same binder?
Answer: -0.235

Question: And the “glycan array binding signal (z-score)” value (Neu5Ac(a2-3)Gal)?
Answer: -0.232

Question: And the “glycan array binding signal (z-score)” value [20]?
Answer: -0.31

Question: What about the “glycan array binding signal (z-score)” value [21] of the same binder?
Answer: 0.087

Question: And the “glycan array binding signal (z-score)” value [22]?
Answer: -0.102

Question: And the “glycan array binding signal (z-score)” value [23]?
Answer: -0.122

Question: And the “glycan array binding signal (z-score)” value [24]?
Answer: 0.233

Question: What about the “glycan array binding signal (z-score)” value [25] of the same binder?
Answer: 0.009

Question: What about the “glycan array binding signal (z-score)” value [26] of the same binder?
Answer: -0.487

Question: What about the “glycan array binding signal (z-score)” value [27] of the same binder?
Answer: 0.178

Question: And the “glycan array binding signal (z-score)” value [28]?
Answer: -0.221
